The whole screen tested about 340,000 compounds, of which about 12,000 (3.5%) were called active. The shares of active, inactive and inconclusive entries below differ from those in the screen. Calls come from the whole dose curve; as a rule, active = well fitted inhibition curve with a large enough effect; inconclusive = small, poorly fitted or top-dose-only effect, or another doubt; inactive = no such curve, though single readings can be large or run the other way. No potency is given beside an inconclusive call; the fits are too rough.
Assay: qHTS Assay for Inhibitors of Hepatitis C Virus (HCV)
Settings: Huh7.5.1 HCVcc-Cre (HCVcc is cell-culture hepatitis C virus) infection, luciferase reporter, 44 h; activity change, negative = inhibition: at 41.8 µM (top of the series)
Summary of the method: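 1,000 cells/well; 4 h culture; + compound; + HCVcc-Cre (~0.5 moi); 44 h; luciferase substrate, RT 15 min; read 15 sec.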
% is set by controls: 0 for no effect and ±100 for the full control effect; potency is the fitted concentration of half-maximal effect; tags give direction and shape of the fitted curve.

Row | Compound | Potency | activity change, negative = inhibition
1 | Cc1cc(N)n2nc(C)c(-c3ccc(Cl)cc3)c2n1 | active: 11.2 µM | 
2 | CCC(CO)Oc1cc(NC(=O)c2ccccc2N)c2ncn(C(C)C)c2c1 (stereo not drawn) | inconclusive [inhibitor, partial curve] | 
3 | COc1ccc(-c2nc(C#N)c(NCCCn3ccnc3)o2)cc1OC | inconclusive [inhibitor, full curve] | 
4 | O=C(COC(=O)c1ccccc1Nc1ccccc1)c1ccccc1 | inconclusive [inhibitor, partial curve] | 
5 | CC(=O)Nc1ccc2c(c1)CCc1ccccc1-2 |  | inactive: -21.1%
6 | COc1ccc(N2CCC(CNC(=O)Nc3ccc(Cl)cc3)C2)cc1 (stereo not drawn) | inconclusive [inhibitor, partial curve] | 
7 | O=C(c1ccc2c(Cl)c3c(nc2c1)CCCC3)N1CCC(N2CCCCC2)CC1 | inconclusive [inhibitor, partial curve] | 
8 | Cn1cnnc1SCC(=O)c1ccc(OC(F)F)cc1 |  | inactive: 8.48%
9 | CN(C)c1ccc(C(c2ccc(N(C)C)cc2)C(O)c2ccccc2)cc1 (stereo not drawn) | inconclusive [inhibitor, single point] | 
10 | COc1ccc(-n2c(C)cc(C(=O)CN3C(=O)c4ccccc4C3=O)c2C)cc1 |  | inactive: -13.4%
11 | Cc1ccc(NC(=S)N2CCCC2)cc1C |  | inactive: -2.18%
12 | CC(C1CC1)N(Cc1ccccc1)C(=O)NC(=O)c1ccccc1 (stereo not drawn) |  | inactive: -4.19%
13 | Cc1cc(-c2cc(C(=O)NCc3ccccc3)on2)nc(S(C)(=O)=O)n1 | inconclusive [inhibitor, single point] | 
14 | O=C(N/N=C/C=C\c1ccccc1[N+](=O)[O-])c1cccs1 | inconclusive [inhibitor, full curve] | 
15 | O=C(Nc1ccc(N2CCN(C(=O)c3cccs3)CC2)c(Cl)c1)c1ccco1 | inconclusive [inhibitor, partial curve] | 
16 | CCc1cccc(CC)c1NC(=O)c1ccccc1 |  | inactive: 26.6%
17 | NC(=O)c1ccsc1NC(=O)COC(=O)/C=C/c1ccccc1 |  | inconclusive: -30.1% [inhibitor]
18 | CC(=O)c1cccc(N(CC(=O)Nc2ccc(F)cc2)S(C)(=O)=O)c1 |  | inactive: 5.74%
19 | O=C(C1CCN(C2CCN(C/C=C/c3ccccc3)CC2)CC1)N1CCOCC1 | inconclusive [inhibitor, partial curve] | 
20 | CCCNC(=O)c1ccccc1NC(=O)COc1cccc2c1OC(C)(C)C2 | inconclusive [inhibitor, partial curve] | 
21 | Cc1ccc(C)c(N2CCN(C(=O)CCc3nc(-c4cccc(Cl)c4)no3)CC2)c1 |  | inactive: -18.1%
22 | CNc1nc2c(c(=O)n(C)c(=O)n2C)n1Cc1ccccc1 | inconclusive [inhibitor, partial curve] | 
23 | Cc1ccc(NC(=O)CCNC(=O)c2ccc(Br)cc2)cc1S(=O)(=O)N1CCCCCC1 | inconclusive [inhibitor, single point] | 
24 | Cc1cc(Cl)c(S(=O)(=O)N2CCN(c3cccc(C)c3C)CC2)cc1OCC(N)=O | inconclusive [inhibitor, single point] | 

Row | Compound | Potency | activity change, negative = inhibition
25 | O=C(CSc1nnc(Cc2ccccc2)o1)c1ccc2c(c1)OCO2 |  | inactive: -5.88%
26 | CCC(=O)NC(=S)Nc1ccc(NC(=O)COc2ccc([N+](=O)[O-])cc2)cc1 | inconclusive [inhibitor, partial curve] | 
27 | O=C(CSc1ccccc1)Nc1ccc(C(=O)Nc2cccc(O)c2)cc1 | inconclusive [inhibitor, single point] | 
28 | Cc1ccc(OCC(=O)Nc2cc(S(=O)(=O)N3CCCCC3)ccc2C)c([N+](=O)[O-])n1 |  | inactive: 10.9%
29 | COc1ccccc1CCNC(=O)CSc1ccc(-c2ccco2)nn1 |  | inactive: -13.1%
30 | CCc1c(C(=O)Nc2cc(C)ccc2OC)[nH]c(C)c1C(C)=O | inconclusive [inhibitor, single point] | 
31 | CCOC(=O)C1(CCc2ccccc2)CCN(Cc2cccc3cnccc23)CC1 | active: 10 µM | 
32 | CC(=O)c1cc2c(cc1NS(=O)(=O)c1ccccc1)OCO2 |  | inactive: -9.59%
33 | O=C(O)CCC(=O)Nc1ccc(C(=O)OCC(=O)c2ccc(Cl)cc2Cl)cc1 |  | inactive: 4.82%
34 | Cc1ccc(N2CC(C(=O)N3CCc4ccccc4C3)CC2=O)cc1 (stereo not drawn) | inconclusive [inhibitor, partial curve] | 
35 | Cc1ccc(-n2c(C)cc(C(=O)COc3cccnc3[N+](=O)[O-])c2C)cc1 | inconclusive [inhibitor, single point] | 
36 | COc1ccccc1C(=O)NCCC(=O)N1CC=C(c2ccccc2)CC1 |  | inactive: -5.44%
37 | COc1ccc(NC(=O)c2cc(-c3cccnc3)nc3c(C)c(C)ccc23)c(OC)c1 | active: 12.6 µM | 
38 | CCc1cccc2c(C(=O)COC(=O)c3ccc(O)cc3)c[nH]c12 | inconclusive [inhibitor, partial curve] | 
39 | Cc1cc(C)c2c(=O)n(CC(=O)Nc3ccc(Br)c(C)c3)sc2n1 | inconclusive [inhibitor, single point] | 
40 | COc1ccc(CCC(=O)OCC(=O)NC(=O)c2ccc(Cl)cc2)cc1 |  | inactive: 36.7%
41 | Cc1cc(=O)oc2c3c(cc(OCC(=O)NCc4ccccc4)c12)OC(C)(C)CC3 | active: 5.62 µM | 
42 | CCc1ccc(N(C(=O)c2csnn2)C(C(=O)NC(C)(C)CC)c2cccnc2)cc1 (stereo not drawn) |  | inactive: 11.8%
43 | COc1ccc(N2CCN(C(c3cccs3)C(C)NC(=O)c3ccco3)CC2)cc1 (stereo not drawn) | inconclusive [inhibitor, full curve, poor fit] | 
44 | OC(COc1ccc(OCC(O)CN2CCCCC2)cc1)CN1CCCCC1 (stereo not drawn) | inconclusive [inhibitor, single point] | 
45 | CC(C)c1ccc(/C=N/n2nnnc2Nc2ccccc2)cc1 | inconclusive [inhibitor, single point] | 
46 | Cc1ccc(CN2CCN(Cc3ccc(-n4cccn4)cc3)CC2CCO)cc1 (stereo not drawn) |  | inactive: -29.4%
47 | CCc1ccc(N2CC(C)Cn3c2nc2c3c(=O)[nH]c(=O)n2C)cc1 (stereo not drawn) | active: 25.1 µM | 
48 | Cc1cc(SCC(=O)c2cccs2)n2nc(C)c(-c3ccccc3)c2n1 | inconclusive [inhibitor, full curve] | 

— PubChem BioAssay AID651820 (National Center for Advancing Translational Sciences (NCATS), 2012)
